Measured values as given in patent publication US20250215105A1, “ANTI-CD39 ANTIBODY” (BrightPath Biotherapeutics Co., Ltd., priority 2022, published 2025).

Tested on: human lung cancer cell line NCI-H292
Experiment: anti-tumor activity: NCI-H292 growth with stimulated PBMCs and ATP (IncuCyte)
Assay type: cell-based
Description: The human lung cancer cell line NCI-H292 having red fluorescent protein (RFP) was seeded on a 96-well plate and cultured overnight. The next day, after removal of the medium, IL-2 (Miltenyi, 130-097-745) at a final concentration of 30 IU as suspended in X-VIVO-15™ medium (Lonza, 04-418Q) and an anti-human CD39 antibody or isotype control antibody at a final concentration of 0.3 to 100 μg/mL were added and the mixture was incubated at 37° C. for 30 minutes. Then, PBMCs from healthy volunteers stimulated with Dynabeads™ Human T-Activator CD3/CD28 (VERITAS, DB11131) for 10 days were added at an E/T ratio of 2 and the mixture was incubated at 37° C. for 30 minutes. […] This made it possible to evaluate the anti-tumor activity of the antibody due to its ability to promote the cytotoxic activity of PBMCs.

[1] = ATP 250 μM, antibody 10 μg/ml (FIG. 32)

B1: I-394h4: anti-CD39 antibody with variable regions of I-394 of WO2018/167267, IgG4 constant region (antibody, listed as Mus musculus, V domains shown)
VH: EVQLQQSGPELVKPGASVKMSCKASGYTFTDYNMHWVKQSHGRTLEWIGYIVPLNGGSTFNQKFKGRATLTVNTSSRTAYMELRSLTSEDSAAYYCARGGTRFAYWGQGTLVTVSA
VL: DIVLTQSPASLAVSLGQRATISCRASESVDNFGVSFMYWFQQKPGQPPNLLIYGASNQGSGVPARFRGSGSGTDFSLNIHPMEADDTAMYFCQQTKEVPYTFGGGTKLEIK
modifications: IgG4 constant regions
notes: anti-CD39 antibody with variable regions of I-394 of WO2018/167267, IgG4 constant region
overall difference in cancer cell growth compared to isotype control (ATP 250 μM (FIG. 31)): small
time after treatment at which a difference to the isotype control starts to appear (ATP 250 μM (FIG. 31)): about 50 hours
overall difference in cancer cell growth compared to isotype control [1]: only a slight difference
time after treatment at which a difference to the isotype control starts to appear [1]: about 80 hours
